This is one part of the list.
system: PfAP2-HC AP2 domain (GST-tagged); experiment: gcPBM binding intensity (ln(normalized median fluorescence intensity)); higher = stronger DNA binding
Method in brief: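 Binding of GST-tagged P. falciparum DNA-binding domains, expressed in E. coli and used at about 25 μg on average, was carried out for 1 h in 1× PBS containing 1% milk, 0.2 mg/ml BSA, 0.5% salmon testes DNA and 0.03% Triton X-100. The target was an Agilent 4 × 180k array of primer-extended double-stranded 36-bp intergenic genomic probes plus negative controls, read with Alexa488 anti-GST antibody at 488 nm. Binding intensity is the highest Masliner-normalised natural-log median intensity across replicate spots of either probe orientation.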

| Sequence | gcPBM binding intensity (ln) |
| --- | --- |
| GGATTGATAAGTGGTACACACATATAGATTATAGAT [CACACA_site7367] | 9.93 |
| CCATCTAAACACAACTCGAGTTGGATGTGTGAACTT [XGTACX_negctrl_site83] | 9.85 |
| ATATATATATATATATGTACATATTTCTCCATTTTT [XGTACX_site2869] | 9.62 |
| CATATTTTTATAAATTGTACGTATATTATATATATA [XGTACX_site1816] | 9.58 |
| AAACCGTGGGAGCACACACACACACCGACACATATA [CACACA_site4338] | 10.4 |
| GTTTTTTATAATTGTAGTACAAGAAGATATTTTTAT [XGTACX_site5443] | 9.49 |
| TGCAATTGTAAAGGCGCACACATATATATATATATA [CACACA_site4894] | 10.7 |
| ATATATCAATATAAAAGTACAAACAAAAAATAATCA [XGTACX_site7559] | 9.89 |
| GATATATACTCCATCACACACCAAAAAGAAAAAAGA [CACACA_site7242] | 9.93 |
| ATCAAAAGAAAACACACACACATACAGATATATATA [CACACA_site5974] | 11.2 |
| TCCATTTATAAATTAGCATGCAATCTATGTCTGATA [TGCATGCA_site1045] | 9.41 |
| AATTAATGGGTACATACACACATATATACCTACATA [CACACA_site4572] | 10 |
| CATATAAAAAATATGGTGCAGTTTTTTTTTTTTTTT | 9.61 |
| TATATATATAATGTTTGTACATATTAAATATATATG [XGTACX_site407] | 9.44 |
| TAAATATTTTTATGGGTGCGTTCTTTAGCGCAATTT | 9.38 |
| TTTTGCAATAATGTTGCACACTAAATAGTCATATAT [CACACA_site7977] | 9.73 |
| TTTATATTGATATATACACACATATACATCCTATTT [CACACA_site7442] | 10.1 |
| ATTATTGTTGTTCATGTACACACTATAATAAAAGCA [CACACA_site4168] | 9.68 |
| ATTAATTATTTCAATGCATGTGAACACTATATATAA [TGCATGCA_site600] | 9.7 |
| AAAAAAAGTTGATACTGTACTCGTGCATTATGAATA [XGTACX_site5558] | 9.87 |
| CTTATTAAAATTATTTGTACACAATATGTAAAAGTA [XGTACX_site7237] | 9.44 |
| TAATTAAAATTATCTACACACCTTTATAAATATATA [CACACA_site3928] | 9.6 |
| AGGTATTTTCTTGTGACACACATATATATATATATT [CACACA_site2220] | 10.1 |

| Sequence | gcPBM binding intensity (ln) |
| --- | --- |
| TTGTATATTATATGTACACACAATAAGTTAATATAA [CACACA_site909] | 9.75 |
| TTCCTTTGTCCTAACTGTACTCAAATTTATTAGTGG [XGTACX_site226] | 9.59 |
| ATAATATATTTTTGAACACACAATATAGATTTATAT [CACACA_site7857] | 9.59 |
| TATTCGAAAATTATTCAAATTATCTAACATATTATT [TGCATGCA_negctrl_site70] | 9.19 |
| AAAAATAAAATAATATGTACATATATAATATATATA [XGTACX_site4786] | 9.82 |
| TAATTTTTTAGACACACACACATATAAATATAAATA [CACACA_site6195] | 10.8 |
| AATTGGAAACAACCAAAAAAATTAAAGTTGTATCCT [CACACA_negctrl_site565] | 9.42 |
| TAAATGAAAACCATTAGTACTTATACTGATAAATGT [XGTACX_site763] | 9.64 |
| TATATCTTAATATACACACACACATATATATATATA [CACACA_site4968] | 10 |
| TATATAAATATATATACACACAAAAAAAAAAAAAAA [CACACA_site1406] | 9.68 |
| TAAATACAAAAATGTACACACATATATATATTTTTA [CACACA_site3503] | 9.81 |
| TAAATTTTAATATGCACACAAAATGTTATATTAAAA [CACACA_site4366] | 9.58 |
| CGGCACATTATATATACACACATATAAATATATACA [CACACA_site8086] | 9.72 |
| AATAAAATATACTATTGTACATATGGAACTACTTGA [XGTACX_site8928] | 9.71 |
| TTGTTTTTAGTTTATACACACCATATTAAAATAATG [CACACA_site5675] | 9.74 |
| ATTTATTATATATAGTGTACGTTCTTAATTATAATT [XGTACX_site7480] | 9.69 |
| TAAAATATATTGCCAGTGCATAATATATGTAATTAT | 9.63 |
| TTTTTTAAATATTAAAAATGGGATCTTATAACATAT [GTGCAC_negctrl_site666] | 9.28 |
| TGTATAAACCCACGTACACACACTAAGTATATCCAA [CACACA_site1605] | 10.3 |
| AACTAATAAAAAAAAAAAACATTAAACAGGACAAAT [XGTACX_negctrl_site287] | 9.79 |
| TAAACAAATAAATAAACACACAATATAGGTATATAT [CACACA_site7739] | 9.98 |
| TTATTTTTAACGTACGCACACATATAAATATATTTA [CACACA_site1976] | 9.82 |
| TTGTATTACATAAATGTTCTTTATTATTTGATAAAA [CACACA_negctrl_site903] | 9.35 |

| Sequence | gcPBM binding intensity (ln) |
| --- | --- |
| TATATAATATATTAATGTACTTAAAATATATTCTAT [XGTACX_site1235] | 9.57 |
| GTGTAGTTAAAAAAAAGTACAGATTTTTTTTTTTTT [XGTACX_site849] | 9.44 |
| AAAAAAAAAAAAACAAGTACAAAGGATAGAAAAAAA [XGTACX_site4133] | 9.82 |
| ATAGAATATTGATATTGTACGTTATCTTAAAACAAT [XGTACX_site1702] | 9.53 |
| ATAAGAACGTCTATGTGTACGCAGCAAAACTGAGTT [XGTACX_site6385] | 9.63 |
| TTCTCAAAGAAGAAAAAGTTTTTTTAATTTTTCTTT [XGTACX_negctrl_site543] | 9.32 |
| AACCAATTATATTTACGTACGTACGGTTTTTTATAT [XGTACX_site1291] | 10.1 |
| AATAAAAAATATAACACAAATATGTATATATATATA [TGCATGCA_negctrl_site245] | 9.81 |
| ACATATAAAATGTATACACACAAATATTACATATAT [CACACA_site1472] | 10 |
| CAAAAAAAAAAAAAAAATAAATAAAGGAAATAAAAA [CACACA_negctrl_site20] | 9.33 |
| AATATATTTTTTTTTTGTACATATTGTAAAATAATA [XGTACX_site6805] | 9.45 |
| ATATATTAATATACTCGTACATATTCTTATTGTGTA [XGTACX_site3728] | 9.71 |
| TATATATATTTCCAGTGTACTTATTTTTTAATCAAT [XGTACX_site8220] | 9.55 |
| TCCTCAAAAAAATAAAATAATTTATACTTTTTTAAA [GTGCAC_negctrl_site724] | 9.38 |
| CACATTTAGAAATAGTTTTATTTTGTATATTCTATT [CACACA_negctrl_site1382] | 9.65 |
| TATACATTTATGTACACACACATATCTGTATATTTA [CACACA_site5617] | 10.1 |
| TTTTGTATATATCACATTAAAAGAAAAAAATATATG [GTGCAC_negctrl_site120] | 9.37 |
| GTATGTGTATGTGTATGTACATATGTATGTATAAAA [XGTACX_site8191] | 9.89 |
| AATTAGACATAATATACACACATATATTATATATAT [CACACA_site2691] | 9.93 |
| TTCAAAAGATATATCGTGCACATATATATGATGAAA | 9.77 |
| ATTTTTTTGGAATTCACACACAAAAAAAAAAATAAA [CACACA_site2081] | 9.83 |
| ATGTTGAGTATATATACACACATACAGATATATATA [CACACA_site4967] | 9.82 |
| TAGGTATATAAATAATGTACATATAAACTATATAGA [XGTACX_site2597] | 9.74 |

| Sequence | gcPBM binding intensity (ln) |
| --- | --- |
| TCCACACAATTTATAACATGCAAAAAGGCAATAATA [TGCATGCA_site773] | 9.57 |
| TGGAGATAAAATAAAACACACACATATATATATATA [CACACA_site8683] | 9.9 |
| ATACATTCTTATTACTGTACAGGGTTAATTATTTGT [XGTACX_site948] | 9.74 |
| ATTATTTTATTTATTGGTACGTAATTGTAGATTTCT [XGTACX_site3697] | 9.63 |
| GCAAAAACAAACGTCACACATACAAAGGCCGTGTAA [CACACA_site6043] | 9.85 |
| TTCGCCCTAAATAGAGTGCATTATATATATTAATAT | 9.65 |
| TTCCAACCAATACAAACATGCATTTGAAAAAATGTA [TGCATGCA_site119] | 9.55 |
| ATAAAATAAATATAACCACACACGAAAGAGAGAGAA [CACACA_site9075] | 10.2 |
| TTTTTAGGAAAGGCGGCACACATTTATATATTTATT [CACACA_site3672] | 9.81 |
| AGCAGTCAGCAGGACAGTACACAGTAGCCAGTAACT [XGTACX_site1999] | 9.53 |
| TTTATTTTATCATTTGCACACGCACGCCCACATAAA [CACACA_site353] | 9.86 |
| CAAAATATATTGAATTGTACATAAAAATAAAAATTA [XGTACX_site4193] | 9.62 |
| CATATAAAAGGACACACACACACATATATATATATA [CACACA_site4674] | 11.6 |
| TATTTTATTTTTTGTTGTACATATATATTATATATA [XGTACX_site4513] | 9.77 |
| ATATGTAAAATATGGTGTACAATCAAATAAAAAAAA [XGTACX_site6270] | 9.95 |
| ATTAATATATTTACCACACACCCATTTCGATTTTAT [CACACA_site3605] | 10.3 |
| AATATATATATATATCCACACACATACATATATTAA [CACACA_site7907] | 10.2 |
| AAAATATTATTACAGAAACAAAAAGAAAAATATATA [GTGCAC_negctrl_site285] | 9.7 |
| ATGGTTTTTATTTTATGTACTTACTAAAATGAATAA [XGTACX_site4317] | 9.49 |
| TACATAAAAATATATGCATGTTCTTATTTAATAAAA [TGCATGCA_site743] | 9.3 |
